The source of these data is paper PMC7826282 (Nucleic Acids Research, 2020).

The target in this assay is T1, 3xFLAG-FL-NOPCHAP1 (human, UniProt Q8N5I9 1-185).
T1 sequence (looked up): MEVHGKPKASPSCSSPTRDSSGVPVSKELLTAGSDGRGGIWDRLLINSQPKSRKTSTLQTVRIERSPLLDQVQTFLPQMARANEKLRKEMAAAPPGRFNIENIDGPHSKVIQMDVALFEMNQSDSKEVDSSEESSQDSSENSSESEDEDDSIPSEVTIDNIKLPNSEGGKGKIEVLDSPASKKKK
In words: co-IP.

B1: RL-RUVBL1-K76M (natural protein)
chain: not shown
B1: the co-IP efficiency is 3.7%.

B2: RL-RUVBL[…]Q (natural protein)
chain: not shown
As for B2, the co-IP efficiency is 0.16%.
